Among all 150,000 compounds or so, about 540 (0.36%) showed an effect of 50% or more. Some of the results follow.

For the assay, the system named is Plasmodium falciparum. The assay is described as follows: Primary screen in NF54 nanoGlo assay, in single point, at 2uM, 72h; a lower Z score goes with more inhibition. As to conditions: timepoint 72 hour. Type of assay: functional, Erythrocyte.
Turning to `CCOc1ncccc1-c1cnn(CC(=O)NC)c1`, the “% Inhibition” value is 1% and the Z score is reported as -0.08.

As for `C#CCCN1CCC(C(=O)NCCCC)CC1`, the “% Inhibition” value was -25% and the Z score was found to be 2.97.

As to `COC(=O)c1cc(-n2cnc3ccccc32)ccn1`, the “% Inhibition” value is -1% and the Z score is 0.18.

Consider `O=C(NCCn1ccc(C(F)(F)F)n1)c1ccc(S(=O)(=O)N2CCOCC2)cc1`, for which the “% Inhibition” value is reported as -13% and the Z score is given as 1.64.

As to `Cc1cccc(N2CCN(C(=O)N[C@H]3CCCCNC3=O)CC2)c1C`, the “% Inhibition” value is 0% and the Z score came to 0.04.

`Cc1ccc([C@@H]2CCCN2Cc2cnc3cnccn23)s1`: the “% Inhibition” value is on record as -1% and the Z score turned out to be 0.11.

`Cc1nc(C)c(CC(=O)N2CCOC[C@@H](CO)C2)s1`: the “% Inhibition” value came to 1% and the Z score was -0.19.

Take `CN(CCCCC1CCOCC1)CC1CCOCC1`: the “% Inhibition” value was -3% and the Z score worked out at 0.37.

For the compound `O=C(NC1CCCC1)N(CCN1CCCCC1)C1CCOCC1`, the “% Inhibition” value was -9% and the Z score is 1.49.

Regarding `O=C(Nc1ccc(Cl)c(Cl)c1)N1CC(N2CC3CCCC3C2)C1` (stereo not drawn), the “% Inhibition” value is recorded as -12% and the Z score is 1.39.

Turning to `C[C@H](NC(=O)c1coc(CN2CCN(c3cccc(C(F)(F)F)c3)CC2)n1)c1ccccc1`, the “% Inhibition” value is reported as -6% and the Z score is given as 0.62.

In the case of `CCc1nc(-c2ccc(C(=O)Nc3cccnc3)cc2)no1`, the “% Inhibition” value was -10% and the Z score is given as 1.02.

Consider `C[C@H]1CCCN(C(=O)C(=O)N2CC3(CC3)C2)C1`, for which the “% Inhibition” value came to 13% and the Z score was -1.46.

With `Cc1ccnc(NCCNC2CCCCCC2)c1`, the “% Inhibition” value was -3% and the Z score was determined as 0.46.

Turning to `CCn1cnc2c1CCN(C(=O)Nc1cc(S(C)(=O)=O)ccn1)C2`, the “% Inhibition” value is -1% and the Z score is 0.17.

Regarding `COc1ccc(NC(=O)C(=O)Nc2cn[nH]c2)c(OC)c1`, the “% Inhibition” value is given as -5% and the Z score was 0.65.

Consider `CCCn1nc(C(=O)N2CCC(C)CCC2C(C)C)ccc1=O` (stereo not drawn), for which the “% Inhibition” value is -5% and the Z score is given as 0.62.

With `Cc1cccc([C@H](C2CC2)n2ccnc2-c2nc3ccccc3n2C)n1`, the “% Inhibition” value is -10% and the Z score is 1.26.

For the compound `CC(C)CCCN(C)C(=O)CC1CCC2(CC1)OCCO2`, the “% Inhibition” value is on record as -7% and the Z score was determined as 1.

Regarding `C[C@H]1CN(C(=O)NCc2ccc(Cn3ccnc3)cc2)CC(=O)N1C`, the “% Inhibition” value was -2% and the Z score is 0.5.

For the compound `FC(F)(F)c1cccc(C2(c3nc([C@@H]4COCCN4)no3)CCOCC2)c1`, the “% Inhibition” value was 0% and the Z score was 0.05.

Take `Cc1nc(C)c(-c2cc(C(=O)N3CCN(c4ccc(F)cc4)CC3)[nH]n2)s1`: the “% Inhibition” value turned out to be 5% and the Z score is recorded as -0.65.

For `COc1ccc(-n2nnc3c(=O)n(CC(=O)N4CCCCCC4)cnc32)cc1OC`, the “% Inhibition” value is listed as -4% and the Z score came to 0.77.

Take `COc1cc2c(cc1OC)CN(C(=O)c1ccncc1)CC2`: the “% Inhibition” value was 4% and the Z score was -0.79.

For the compound `Cc1cccc(N(C)Cc2cc(-c3cnn(C)c3)no2)c1C`, the “% Inhibition” value is given as -2% and the Z score is on record as 0.29.

With `Cc1nc(N2CC(C)(C#N)C2)c2cnn(-c3cccc(F)c3)c2n1`, the “% Inhibition” value is listed as -8% and the Z score is given as 0.89.

For the compound `CN(Cc1cnn(C)c1)Cc1nc2cc(C(F)(F)F)ccc2o1`, the “% Inhibition” value was found to be 0% and the Z score came to 0.06.

`CNS(=O)(=O)CCN1CCC(F)(F)C1`: the “% Inhibition” value turned out to be 4% and the Z score is on record as -0.81.

For the compound `O=C(c1cccnc1O)N1CCC(c2nccn2CC2CC2)CC1`, the “% Inhibition” value is given as -4% and the Z score is listed as 0.53.

Regarding `COc1ccc(/C=C/C2C(S(=O)(=O)NCCCN3CCCC3=O)CON2C)cc1` (stereo not drawn), the “% Inhibition” value is given as -1% and the Z score is 0.19.

For `CCc1nnsc1C(=O)N[C@@H](C)c1nc(C)no1`, the “% Inhibition” value is on record as -15% and the Z score was 2.23.

Consider `Cc1noc(C)c1CS(=O)(=O)CC(=O)N1CCC[C@H](C)C1`, for which the “% Inhibition” value is -6% and the Z score came to 0.72.

In the case of `O=C(Nc1cccnc1)[C@H]1CC12CCCCC2`, the “% Inhibition” value is -7% and the Z score came to 1.03.

With `O=C1c2cc(NS(=O)(=O)c3cccnc3)ccc2OCC[C@@H]2CCCCN12`, the “% Inhibition” value is on record as -1% and the Z score is 0.17.

Consider `CCn1ncc(NC(=O)NC[C@@]2(C)CCCCO2)c1C(F)(F)F`, for which the “% Inhibition” value is recorded as -21% and the Z score is listed as 4.08.

In the case of `Cc1ccc(C)c([C@H](C)N(C)C(=O)Cn2ncn(C)c2=O)c1`, the “% Inhibition” value was determined as 8% and the Z score is recorded as -0.97.

Take `COCCn1c(-c2ccc(C)o2)nnc1N1CCC(OC)CC1`: the “% Inhibition” value was 0% and the Z score is recorded as 0.05.

For `O=C1[C@@H]2Cc3c([nH]c4ccccc34)C(c3ccc(Cl)cc3)N2C(=O)CN1CCO` (stereo partly drawn), the “% Inhibition” value was -7% and the Z score was 1.11.

As to `CCOc1cc(NCc2ncccc2F)ncn1`, the “% Inhibition” value worked out at 4% and the Z score is -0.37.

Take `Cc1ccccc1C(=O)NCC(=O)N[C@H]1CCCOC1`: the “% Inhibition” value was -2% and the Z score was found to be 0.3.

Turning to `O=C(O)c1cccc(CN2CCC[C@H](S(=O)(=O)Nc3ccccc3)C2)c1`, the “% Inhibition” value is reported as -7% and the Z score was determined as 0.72.

With `COCCCC(=O)NCc1ccc(N(C)C)c(C)c1`, the “% Inhibition” value is -3% and the Z score is 0.44.

In the case of `CC(C)n1cc(C(=O)N2CCC(Nc3nccs3)CC2)cn1`, the “% Inhibition” value is 4% and the Z score is reported as -0.47.

For `CCc1nc(CN2CCC3(CCCCCC3)C2)n[nH]1`, the “% Inhibition” value is given as -9% and the Z score is 1.2.

By % Inhibition is commonly meant the relative decrease from the control value, in per cent.

The record behind these values is ChEMBL document CHEMBL4888484, “Replenishing the malaria drug discovery pipeline: Screening and hit evaluation of the MMV Hit Generation Library 1 (HGL1) against asexual blood stage Plasmodium falciparum ,using a nano luciferase reporter read-out” (2022).
